The supplement of paper PMC3724861
The other results are listed elsewhere or left out.

Test system: T1, Caupolican (Caup) homeodomain DNA-binding domain
T1 sequence: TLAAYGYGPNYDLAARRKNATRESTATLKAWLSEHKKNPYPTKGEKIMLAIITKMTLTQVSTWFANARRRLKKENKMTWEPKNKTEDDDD
Experiment: PBM E-score (8-mer, recovered from the published 9-mer minima) (E-score (dimensionless, -0.5 to 0.5)); Drosophila protein; higher = stronger relative binding preference, active = 0.31 or more
Method: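 Protein binding microarray (PBM): in vitro transcribed/translated Caupolican (Caup) homeodomain DNA-binding domain (residues 214-303) applied at 100 nM to a universal 8-mer PBM array (Agilent AMADID 015681). The 8-mer enrichment score (E-score, range -0.5 to 0.5) was computed, and each 9-mer score is the minimum E-score of its two constituent 8-mers. The E-score is the same for a 9-mer and its reverse complement; 0.31 is the stated binding threshold.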

Sequence | PBM E-score
GCGTATCA | inactive: 0.0565
ACTGAGCG | inactive: -0.118
GGCGTGAA | inactive: -0.0937
CCACTGTA | inactive: 0.0682
AATCGGAC | inactive: -0.00281
GCTCGAGC | inactive: -0.0243
AATAACTG | inactive: 0.122
GACAAGGC | inactive: 0.205
ACGGGAAA | inactive: -0.0251
ACAGGCTG | inactive: 0.0472
GAATTTAC | inactive: 0.121
ACAATGAC | inactive: 0.225
CGCCTGAA | inactive: -0.0974
AGGGGGTG | inactive: -0.271
ATAGGTCA | inactive: 0.11
ACATACGT | inactive: 0.206
CACACCCC | inactive: -0.109
CAGACTGA | inactive: -0.031
AGCAGACT | inactive: 0.0454
ACCCGGCG | inactive: -0.147
TATATACA | active: 0.355
CAAGGCAA | inactive: 0.0274
GGTACGTA | inactive: 0.0661
ACCCAAAA | inactive: -0.135

Sequence | PBM E-score
CGTGCGAA | inactive: -0.0655
GCCTTCGC | inactive: -0.196
AGGGCGAT | inactive: -0.0688
CCATATCC | inactive: -0.0382
AACATAGA | inactive: 0.232
CATGTGAC | inactive: 0.219
AACTTCTT | inactive: 0.0676
ACCGCAGG | inactive: -0.203
TAAACGAA | inactive: 0.0371
AGATGACC | inactive: -0.0558
CTTAACCA | inactive: 0.111
ATGAAGGC | inactive: -0.101
CGCAAGCA | inactive: -0.0904
CGCCCTCA | inactive: -0.158
ACATGTAT | active: 0.469
GGACTAGA | inactive: -0.104
ACGCGAAT | inactive: 0.047
AATGCGAG | inactive: -0.0192
AGTCGGTG | inactive: -0.0401
GCACCTAA | inactive: 0.0208
CACGATGG | inactive: -0.0392
AGAAGTGG | inactive: -0.0396
TATTAACA | active: 0.312
AACAATCT | inactive: 0.169

Sequence | PBM E-score
TGACATAA | active: 0.311
AAGGTAAA | inactive: 0.121
ACCATTAT | inactive: 0.069
CGCGTCGC | inactive: -0.18
AGTGTCGC | inactive: 0.082
AGTGGGAG | inactive: -0.0484
ATACACCA | inactive: 0.198
ACAACCTG | inactive: 0.275
ATAGATAT | inactive: 0.169
ACGTAAGG | inactive: -0.042
GCCTCGAC | inactive: -0.0572
CTCGTACC | inactive: 0.0909
CCATACTA | inactive: 0.188
AGATCTAG | inactive: -0.0346
AGCATACT | inactive: 0.073
ATTTGATA | inactive: 0.138
TCTGCAGA | inactive: -0.0364
TCTACGAA | inactive: 0.00894
GTATTTAA | inactive: 0.204
CGACTAAG | inactive: -0.0807
GGCACACC | inactive: -0.187
ATTTTCCC | inactive: -0.00887
GAAAAGAA | inactive: 0.0391
AAGCATGC | inactive: 0.122

Sequence | PBM E-score
AGCTGTGC | inactive: -0.0738
CAGGATGC | inactive: -0.0627
CGGTAGCA | inactive: 0.00728
ACGCGGCA | inactive: -0.142
AGGGCCGA | inactive: -0.181
CTGCTTTC | inactive: -0.0276
ATGGACAC | inactive: 0.166
AAGTAAAT | inactive: 0.161
AGCAAGAG | inactive: -0.0284
ACGCCGGC | inactive: -0.215
GCATATGC | inactive: -0.0493
AGGTAGCG | inactive: -0.101
TACACATA | active: 0.343
AGGGCTGA | inactive: -0.0874
ACTGAACA | inactive: 0.23
GAGGATAA | inactive: -0.0673
CCCGAACA | inactive: 0.079
GGTTGCAA | inactive: 0.00792
AGAATGTA | inactive: 0.247
ACGCCGCG | inactive: -0.138
AACTGCTT | inactive: -0.079
CGGAAATA | inactive: 0.0958
ATTGGTTA | inactive: 0.109
AATAGCCC | inactive: -0.131

Sequence | PBM E-score
ACGATCAC | inactive: 0.0466
ATGCTGGC | inactive: -0.0467
AAGTACCT | inactive: 0.124
CGAAATTC | inactive: -0.117
CGTCCCGA | inactive: -0.117
CAGAACGG | inactive: -0.04
ACACGTAT | inactive: 0.291
CCCTAGAA | inactive: -0.0811
CAATTACG | inactive: 0.0582
AATCACAG | inactive: 0.123
CTGAAACC | inactive: -0.0654
GCAAAACC | inactive: -0.167
AAACAAAT | ≥ 0.296
AACCACCC | inactive: -0.0782
ACTGATCC | inactive: 0.062
GACTATAA | inactive: 0.0917
AAAACGGT | inactive: -0.00125
GCCCAGCC | inactive: -0.262
ATTTTGAC | inactive: 0.173
CTACCGAC | inactive: -0.0513
CCTCCACG | inactive: -0.165
ATTTGCGA | ≥ 0.0754
CATCACCA | inactive: 0.0719
CGGGTAGA | inactive: -0.0905

Sequence | PBM E-score
AAGGGGAG | inactive: -0.308
GTTTGACA | inactive: 0.251
TGAAAGAA | ≥ 0.0712
CCCGCCGC | inactive: -0.207
ACCTTTTC | inactive: -0.0418
TCTAAAAA | inactive: -0.0369
CTGCAGTA | inactive: 0.0473
ACGATAGA | inactive: 0.0577
ACGCACGT | ≥ 0.00167
AAAAGAAT | inactive: 0.102
GACGCGAA | inactive: -0.107
AGATCCGG | inactive: -0.11
CCATGTTC | active: 0.368
ATCGCGGA | inactive: -0.111
GTGCGAAC | inactive: -0.133
AGCCTTTA | inactive: -0.0121
CTACAGTC | inactive: -0.0315
ACCACTCC | inactive: -0.0258
AGAAGATG | inactive: -0.029
ACAGGTAT | inactive: 0.203
CGCGTACC | inactive: -0.0687
TACGACAA | inactive: 0.28
CCCCGTGC | inactive: -0.221
